± gives the standard deviation of the averaged measurements. Restriction of a single-cycle SIVsab GFP reporter by TRIM5α v1-loop variants in CRFK cells. Human variants: read share among cells still uninfected after two challenges over input, higher = gained restriction. Rhesus variants: share among infected cells over input, higher = lost restriction. Reporter dose not given per row. No active / inactive call per row; the paper calls a change when both replicates lie above its controls (mean + 2 SD of stop or wild-type variants, or the top frameshift score). Residues outside the varied loop are taken from Swiss-Prot. The paper reads the human single-substitution scores as noise; they and the rhesus combinations repeat poorly (rank correlation 0.3 to 0.4), indel scores repeat only for the top variants, rhesus substitutions well (0.9).

This data set deals with SIVsab (simian immunodeficiency virus of sabaeus monkeys), single-cycle GFP reporter, in CRFK cells. Nature of the data set: enrichment among uninfected cells over input (fold); higher = stronger restriction. The conditions noted are these: library: human / rhesus combinations. On the procedure: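 Pools of CRFK cells expressing variants of the TRIM5α v1 loop were challenged with the single-cycle reporter, sorted by GFP and sequenced; mean of two replicates.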
As to “MASGILVNVKEEVTCPICLELLTQPLSLDCGHSFCQACLTANHKKSMLDKGESSCPVCRISYQPENIRPNRHVANIVEKLREVKLSPEGQKVDHCARHGEKLLLFCQEDGKVICWLCERSQEHRGHHTFLTEEVAREYQVKLQAALEMLRQKQQEAEELEADIREEKASWKTQIQYDKTNVLADFEQLRDILDWEESNELQNLEKEEEDILKSLTNSETEMVQQTQSLRELISDLEHRLQGSVMELLQGVDGVIKRTENVTLKKPETFPKNQRRVFRAPDLKGMLEVFRELTDVRRYWVDVTVAPNNISCAVISEDKRQVSSPKPQIIYQAPGTRYTFQTFVNFNYCTGILGSQSITSGKHYWEVDVSKKTAWILGVCAGFQPDAMCNIEKNENYQPKYGYWVIGLEEGVKCSAFQDSSFHTPSVPFIVPLSVIICPDRVGVFLDYEACTVSFFNITNHGFLIYKFSHCSFSQPVFPYLNPRKCGVPMTLCSPSS [human TRIM5α, 330-340 = QAPGTRYTFQTFV]”, the enrichment is 0.197 ± 0.047.

With “MASGILVNVKEEVTCPICLELLTQPLSLDCGHSFCQACLTANHKKSMLDKGESSCPVCRISYQPENIRPNRHVANIVEKLREVKLSPEGQKVDHCARHGEKLLLFCQEDGKVICWLCERSQEHRGHHTFLTEEVAREYQVKLQAALEMLRQKQQEAEELEADIREEKASWKTQIQYDKTNVLADFEQLRDILDWEESNELQNLEKEEEDILKSLTNSETEMVQQTQSLRELISDLEHRLQGSVMELLQGVDGVIKRTENVTLKKPETFPKNQRRVFRAPDLKGMLEVFRELTDVRRYWVDVTVAPNNISCAVISEDKRQVSSPKPQIIYQAPGTRYTFQTLTNFNYCTGILGSQSITSGKHYWEVDVSKKTAWILGVCAGFQPDAMCNIEKNENYQPKYGYWVIGLEEGVKCSAFQDSSFHTPSVPFIVPLSVIICPDRVGVFLDYEACTVSFFNITNHGFLIYKFSHCSFSQPVFPYLNPRKCGVPMTLCSPSS [human TRIM5α, 330-340 = QAPGTRYTFQTLT]”, the enrichment came to 0.0653 ± 0.049.

For “MASGILVNVKEEVTCPICLELLTQPLSLDCGHSFCQACLTANHKKSMLDKGESSCPVCRISYQPENIRPNRHVANIVEKLREVKLSPEGQKVDHCARHGEKLLLFCQEDGKVICWLCERSQEHRGHHTFLTEEVAREYQVKLQAALEMLRQKQQEAEELEADIREEKASWKTQIQYDKTNVLADFEQLRDILDWEESNELQNLEKEEEDILKSLTNSETEMVQQTQSLRELISDLEHRLQGSVMELLQGVDGVIKRTENVTLKKPETFPKNQRRVFRAPDLKGMLEVFRELTDVRRYWVDVTVAPNNISCAVISEDKRQVSSPKPQIIYQAPGTRYTFQTLVNFNYCTGILGSQSITSGKHYWEVDVSKKTAWILGVCAGFQPDAMCNIEKNENYQPKYGYWVIGLEEGVKCSAFQDSSFHTPSVPFIVPLSVIICPDRVGVFLDYEACTVSFFNITNHGFLIYKFSHCSFSQPVFPYLNPRKCGVPMTLCSPSS [human TRIM5α, 330-340 = QAPGTRYTFQTLV]”, the enrichment was determined as 0.111 ± 0.055.

For the sequence “MASGILVNVKEEVTCPICLELLTQPLSLDCGHSFCQACLTANHKKSMLDKGESSCPVCRISYQPENIRPNRHVANIVEKLREVKLSPEGQKVDHCARHGEKLLLFCQEDGKVICWLCERSQEHRGHHTFLTEEVAREYQVKLQAALEMLRQKQQEAEELEADIREEKASWKTQIQYDKTNVLADFEQLRDILDWEESNELQNLEKEEEDILKSLTNSETEMVQQTQSLRELISDLEHRLQGSVMELLQGVDGVIKRTENVTLKKPETFPKNQRRVFRAPDLKGMLEVFRELTDVRRYWVDVTVAPNNISCAVISEDKRQVSSPKPQIIYQARGTLFPSFVNFNYCTGILGSQSITSGKHYWEVDVSKKTAWILGVCAGFQPDAMCNIEKNENYQPKYGYWVIGLEEGVKCSAFQDSSFHTPSVPFIVPLSVIICPDRVGVFLDYEACTVSFFNITNHGFLIYKFSHCSFSQPVFPYLNPRKCGVPMTLCSPSS [human TRIM5α, 330-340 = QARGTLFPSFV]”, the enrichment is 0.124 ± 0.16.

“MASGILVNVKEEVTCPICLELLTQPLSLDCGHSFCQACLTANHKKSMLDKGESSCPVCRISYQPENIRPNRHVANIVEKLREVKLSPEGQKVDHCARHGEKLLLFCQEDGKVICWLCERSQEHRGHHTFLTEEVAREYQVKLQAALEMLRQKQQEAEELEADIREEKASWKTQIQYDKTNVLADFEQLRDILDWEESNELQNLEKEEEDILKSLTNSETEMVQQTQSLRELISDLEHRLQGSVMELLQGVDGVIKRTENVTLKKPETFPKNQRRVFRAPDLKGMLEVFRELTDVRRYWVDVTVAPNNISCAVISEDKRQVSSPKPQIIYQARGTLFPSLVNFNYCTGILGSQSITSGKHYWEVDVSKKTAWILGVCAGFQPDAMCNIEKNENYQPKYGYWVIGLEEGVKCSAFQDSSFHTPSVPFIVPLSVIICPDRVGVFLDYEACTVSFFNITNHGFLIYKFSHCSFSQPVFPYLNPRKCGVPMTLCSPSS [human TRIM5α, 330-340 = QARGTLFPSLV]”: the enrichment worked out at 0.00684 ± 0.0058.

In the case of “MASGILVNVKEEVTCPICLELLTQPLSLDCGHSFCQACLTANHKKSMLDKGESSCPVCRISYQPENIRPNRHVANIVEKLREVKLSPEGQKVDHCARHGEKLLLFCQEDGKVICWLCERSQEHRGHHTFLTEEVAREYQVKLQAALEMLRQKQQEAEELEADIREEKASWKTQIQYDKTNVLADFEQLRDILDWEESNELQNLEKEEEDILKSLTNSETEMVQQTQSLRELISDLEHRLQGSVMELLQGVDGVIKRTENVTLKKPETFPKNQRRVFRAPDLKGMLEVFRELTDVRRYWVDVTVAPNNISCAVISEDKRQVSSPKPQIIYQARGTLFPTLVNFNYCTGILGSQSITSGKHYWEVDVSKKTAWILGVCAGFQPDAMCNIEKNENYQPKYGYWVIGLEEGVKCSAFQDSSFHTPSVPFIVPLSVIICPDRVGVFLDYEACTVSFFNITNHGFLIYKFSHCSFSQPVFPYLNPRKCGVPMTLCSPSS [human TRIM5α, 330-340 = QARGTLFPTLV]”, the enrichment came out at 0.00124 ± 0.00071.

Turning to “MASGILVNVKEEVTCPICLELLTQPLSLDCGHSFCQACLTANHKKSMLDKGESSCPVCRISYQPENIRPNRHVANIVEKLREVKLSPEGQKVDHCARHGEKLLLFCQEDGKVICWLCERSQEHRGHHTFLTEEVAREYQVKLQAALEMLRQKQQEAEELEADIREEKASWKTQIQYDKTNVLADFEQLRDILDWEESNELQNLEKEEEDILKSLTNSETEMVQQTQSLRELISDLEHRLQGSVMELLQGVDGVIKRTENVTLKKPETFPKNQRRVFRAPDLKGMLEVFRELTDVRRYWVDVTVAPNNISCAVISEDKRQVSSPKPQIIYQARGTLFQSFVNFNYCTGILGSQSITSGKHYWEVDVSKKTAWILGVCAGFQPDAMCNIEKNENYQPKYGYWVIGLEEGVKCSAFQDSSFHTPSVPFIVPLSVIICPDRVGVFLDYEACTVSFFNITNHGFLIYKFSHCSFSQPVFPYLNPRKCGVPMTLCSPSS [human TRIM5α, 330-340 = QARGTLFQSFV]”, the enrichment was 0.00353 ± 0.0011.

Consider “MASGILVNVKEEVTCPICLELLTQPLSLDCGHSFCQACLTANHKKSMLDKGESSCPVCRISYQPENIRPNRHVANIVEKLREVKLSPEGQKVDHCARHGEKLLLFCQEDGKVICWLCERSQEHRGHHTFLTEEVAREYQVKLQAALEMLRQKQQEAEELEADIREEKASWKTQIQYDKTNVLADFEQLRDILDWEESNELQNLEKEEEDILKSLTNSETEMVQQTQSLRELISDLEHRLQGSVMELLQGVDGVIKRTENVTLKKPETFPKNQRRVFRAPDLKGMLEVFRELTDVRRYWVDVTVAPNNISCAVISEDKRQVSSPKPQIIYQARGTLFQSLVNFNYCTGILGSQSITSGKHYWEVDVSKKTAWILGVCAGFQPDAMCNIEKNENYQPKYGYWVIGLEEGVKCSAFQDSSFHTPSVPFIVPLSVIICPDRVGVFLDYEACTVSFFNITNHGFLIYKFSHCSFSQPVFPYLNPRKCGVPMTLCSPSS [human TRIM5α, 330-340 = QARGTLFQSLV]”, for which the enrichment stood at 0.00222 ± 0.0015.

The values above are taken from the supplement of paper PMC12230231.
